Test results from paper PMC4336329 (PLoS ONE, 2015).
The whole screen tested about 310,000 compounds, of which about 2,200 (0.71%) showed an effect of 50% or more. The effect is printed as a negative number. Some of the results follow.

molecular target: human ether-à-go-go-related gene (hERG) potassium channel (human, UniProt Q12809); assay: primary screen, population patch clamp on CHO cells stably expressing hERG
Sequence (Q12809 whole entry, looked up): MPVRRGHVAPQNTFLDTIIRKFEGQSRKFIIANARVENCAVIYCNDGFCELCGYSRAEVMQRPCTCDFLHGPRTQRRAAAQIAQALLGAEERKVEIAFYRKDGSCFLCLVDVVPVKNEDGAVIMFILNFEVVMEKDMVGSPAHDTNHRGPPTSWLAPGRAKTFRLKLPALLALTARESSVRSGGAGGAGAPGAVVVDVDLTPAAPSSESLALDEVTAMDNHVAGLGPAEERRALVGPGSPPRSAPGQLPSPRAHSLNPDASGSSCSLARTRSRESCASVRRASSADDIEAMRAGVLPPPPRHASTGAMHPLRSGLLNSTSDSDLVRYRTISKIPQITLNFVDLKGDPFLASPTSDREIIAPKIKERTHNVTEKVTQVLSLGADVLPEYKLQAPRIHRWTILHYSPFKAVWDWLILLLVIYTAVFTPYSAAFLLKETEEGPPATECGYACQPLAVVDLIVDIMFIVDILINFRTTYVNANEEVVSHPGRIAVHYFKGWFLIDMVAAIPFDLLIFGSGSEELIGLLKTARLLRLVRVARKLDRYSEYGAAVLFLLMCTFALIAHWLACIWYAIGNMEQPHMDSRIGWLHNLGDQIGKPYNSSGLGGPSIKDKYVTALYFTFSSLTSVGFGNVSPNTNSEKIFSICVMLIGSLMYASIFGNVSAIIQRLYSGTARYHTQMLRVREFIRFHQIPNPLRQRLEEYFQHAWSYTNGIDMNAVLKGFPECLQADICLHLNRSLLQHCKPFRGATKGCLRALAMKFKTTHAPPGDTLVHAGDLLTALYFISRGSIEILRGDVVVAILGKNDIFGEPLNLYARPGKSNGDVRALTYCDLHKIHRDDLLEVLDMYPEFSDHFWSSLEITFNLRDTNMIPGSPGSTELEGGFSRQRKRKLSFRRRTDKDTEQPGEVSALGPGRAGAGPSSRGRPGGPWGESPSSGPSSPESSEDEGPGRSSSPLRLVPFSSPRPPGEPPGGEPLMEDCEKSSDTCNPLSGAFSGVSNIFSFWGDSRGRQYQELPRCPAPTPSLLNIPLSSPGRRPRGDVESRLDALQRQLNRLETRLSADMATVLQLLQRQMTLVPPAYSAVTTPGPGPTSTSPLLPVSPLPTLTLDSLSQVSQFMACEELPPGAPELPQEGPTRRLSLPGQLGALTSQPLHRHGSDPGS

SMILES	hERG current change (%, negative = inhibition) at 1uM [%]
Cc1c(NC(=O)C2CC(c3ccc(F)cc3)=NO2)c(=O)n(-c2ccccc2)n1C (centres unmarked)	7
CN1/C(=C\C(=O)CSc2nnc(N)s2)C(C)(C)c2ccccc21	1.34
O=C(c1ccc(S(=O)(=O)N2CCOCC2)cc1)N(c1ccccc1)C1C=CS(=O)(=O)C1 (centres unmarked)	6.83
CCc1nnc(NC(=O)c2ccc3nc(CC)c(CC)nc3c2)s1	20
CCC1S/C(=C(\C#N)C(N)=O)N(c2ccc(F)cc2)C1=O (centres unmarked)	14
NS(=O)(=O)c1ccc(NC(=O)CSc2nnc(COc3ccccc3Cl)n2C2CC2)cc1	5.16
CC(CC#CCN1CCOCC1)OCCC#N (centres unmarked)	6.3
O=C(NC1CCC(O)CC1)c1ccc(NS(=O)(=O)c2cccc([N+](=O)[O-])c2)cc1 (centres unmarked)	12.1
COc1ccc(-c2coc3cc4oc(=O)cc(-c5ccccc5)c4cc23)cc1F	3.73
COc1ccc(C(=O)N2CC3(C)CC2CC(C)(C)C3)cc1OC (centres unmarked)	-8.4
CCCn1c(Cc2ccccc2)n[nH]c1=S	18
CC(=O)c1ccc(NC(=O)C(C)OC(=O)c2ccc3c(c2)nc(C)n3-c2ccccc2)cc1 (centres unmarked)	-2.28
Cc1ccc(-n2c(-c3ccc(Cl)cc3)n[nH]c2=S)c(C)c1	9.08
Cc1nn(CC(O)COc2ccc3c(c2)CCC3)c(C)c1Br (centres unmarked)	4.55
O=C(CSc1nc(-c2ccccc2)cs1)NCCN1C(=O)CSC1=O	12.2
Cc1ccc(NC(=O)/C(=C\c2cccc(Br)c2)NC(=O)c2ccco2)cc1	-5.37
CCCNC(=O)C(Cc1ccc(F)cc1)NC(=O)c1ccc(C#N)cc1 (centres unmarked)	-17.5
CC[C@@H](C)[C@H](NC(=O)CCc1c(C)c2cc3c4c(oc3c(C)c2oc1=O)CCCC4)C(=O)O	11.3
COc1ccc([C@H]2CC(=O)C=C(c3ccc(OC)c(OC)c3)C2)cc1	11.9
O=C(CN1CCCCCC1)Nc1cc(C(F)(F)F)ccc1Cl	5.62
CCn1c(SCC(=O)Nc2ccc(NC(=O)c3ccco3)cc2)nnc1-c1cccs1	11.7
CCOC(=O)CN(C)Cc1cn[nH]c1-c1ccc2cc(OC)ccc2c1	10.9
COc1ccc(CCc2nnc(CCC(=O)NCc3cc(C(C)C)no3)o2)cc1	13.9

SMILES	hERG current change (%, negative = inhibition) at 1uM [%]
CCOC(=O)c1cnc2c(OC)cccc2c1Oc1ccccc1	11
N/C(=N\OC(=O)C12CC3CC(CC(C3)C1)C2)c1ccccn1	3.94
COCCN(C(=O)c1csnn1)C(C(=O)NC1CCCC1)c1ccc(C)cc1 (centres unmarked)	7.06
CCOCCCNC(=S)N1CCCN(c2nc3cc(C)c(C)cc3cc2C#N)CC1	-1.71
COc1ccc(N2CCN(CC(=O)c3ccc(O)cc3O)CC2)cc1	22.8
CCOc1ccc(-c2nc(C#N)c(N3CCN(CC)CC3)o2)cc1	-17.7
Cc1cc([N+](=O)[O-])ccc1N1C(=O)c2ccc(C(=O)Nc3ccccc3C(=O)O)cc2C1=O	11
COc1ccc(-c2csc(NC(=O)c3ccoc3C)n2)cc1	17
CCN1CSC(=S)N(Cc2ccccc2)C1	9.5
CCN1C(=O)C(C(=O)NC(C)c2ccccc2)C2CC1(C)Oc1ccccc12 (centres unmarked)	1.51
COc1ccc2[nH]c(-c3ccccc3)cc2c1	12
CC(NC(=O)COC(=O)c1cc(Cl)nc(Cl)c1)c1ccccc1 (centres unmarked)	4.7
COc1ccc(Cl)cc1NC(=O)NCC1CCN(Cc2cc(C)ccc2C)CC1	0.244
CCOc1ccc(NC(=S)NC(=O)/C=C/c2ccc(Br)cc2)c([N+](=O)[O-])c1	10.5
O=C(c1cc2nc(-c3ccc(F)cc3)cc(C(F)(F)F)n2n1)N1CCOCC1	10.2
CCCCNC(=O)c1ccc(NC(=O)C2CCCO2)cc1 (centres unmarked)	13.5
COc1ccc(C(CNC(=O)COc2cccc(C)c2)N2CCCC2)cc1 (centres unmarked)	6.48
COc1ccccc1N1CCN(C(=O)c2cccc(Oc3ccccc3)c2)CC1.Cl	2.65
CCOC(=O)C1=C2c3cc(OC)c(OC)cc3CC(C)(C)N2C(=O)C1=O	11.8
Cc1ccc(NC(=S)NC2CCN(Cc3ccccc3)CC2)cc1	-6.43
Cc1ccc(-c2csc3nc(-c4ccncc4)[nH]c(=O)c23)cc1	-2.12
Cc1ccc(NC(=O)NC2CC(=O)N(c3ccc4c(c3)OCCO4)C2)cc1C (centres unmarked)	19.3
Cc1cc(N2CCN(c3ccccn3)CC2)n2cc(-c3ccccc3)nc2n1	-65.4

SMILES	hERG current change (%, negative = inhibition) at 1uM [%]
Brc1ccc2nc(N3CCCC3)sc2c1	8.86
O=c1[nH][nH]c(C(F)(F)F)c1C=NCc1ccc(Cl)cc1	9.01
CN1CCN(C(=O)/C(=C/c2ccc(N(C)C)cc2)NC(=O)c2ccccc2)CC1	7.18
O=C1CCCN1CC(=O)N1CCCC(Nc2cccc(F)c2)C1 (centres unmarked)	2.66
COc1ccc(N(C(=O)c2csnn2)C(C(=O)NC2CCCC2)c2cccs2)cc1 (centres unmarked)	5.63
O=C(NC1CCCN(Cc2ccc(Cl)cc2)C1)c1c(F)cccc1F (centres unmarked)	17.1
COCCNCCOc1ccc(C(C)(C)c2ccccc2)cc1.O=C(O)C(=O)O	-2.39
OCCC1CN(Cc2nc3ccc(F)cc3[nH]2)CCN1C1CCCC1 (centres unmarked)	6.57
Cc1cccnc1NC(=O)CSc1nnc(COc2ccc(C(C)C)cc2)n1C	6.31
CC(C)(C)c1ccc(C(=O)Nc2ccccc2NC(=O)c2ccco2)cc1	6.52
c1ccc(OCCCc2nc(-c3ccccn3)no2)cc1	10.4
O=C(c1cc(Cl)nc2ccccc12)N1CCCCC1	7.78
CN(CCOc1ccccc1)C(=O)C1CCN(C(=O)c2ccc(F)cc2)CC1	6.11
Cc1ccc(-c2csc(=S)[nH]2)cc1	12.3
CC1CCCN(C(=S)NCCc2ccccc2)C1 (centres unmarked)	10.5
CCOC(=O)c1sc2nc(CSc3ccccc3)[nH]c(=O)c2c1C	12.1
Cc1cccc(N2CCc3c2nc2ccc(Br)cc2c3N)c1.Cl	7.1
Cc1cc(OCC(O)CN2CCN(CCO)CC2)ccc1C(C)C.Cl (centres unmarked)	7.73
COc1ccc(NC(=O)C2CCCN2C(=O)NCc2ccccc2)cc1OC (centres unmarked)	19.3
COc1ccc(OCC(=O)N2CCN(C(=O)c3ccccc3)CC2)cc1	-3.83
COC(=O)NC1(C(F)(F)F)C(=O)NC(C)=C1C(=O)OC (centres unmarked)	11.4
O=Cc1c(SCCO)nc2ccccn2c1=O	0.111
COc1ccc(NC(C)=O)c2nc(C)c(C)nc12	9.37

SMILES	hERG current change (%, negative = inhibition) at 1uM [%]
Nc1nc(CN2CCN(c3ccccn3)CC2)nc(Nc2ccc(F)cc2)n1	-49
Nc1nonc1-n1nnc(C(=O)N/N=C/c2ccccc2Cl)c1-c1ccc2c(c1)OCO2	1.92
CC(=O)Nc1ccc2nc(NC(=O)c3ccc([N+](=O)[O-])s3)sc2c1	19.5
COC(=O)C1=C(C)N(c2ccc(OC)c(OC)c2)C(=O)/C1=C\c1ccco1	12.5
COc1cccc(NC(=S)N(Cc2ccc(Cl)cc2)Cc2ccc(C(=O)O)cc2)c1	15
CSc1nc2ccc(NC(=O)NC(=O)c3c(F)cccc3F)cc2s1	8.52
Cc1cc(C)c(S(=O)(=O)N2CCN(C(=O)CCOc3ccccc3C)CC2)c(C)c1	0.271
CC1(C)CC2CC(C)(CN2C(=O)c2cccs2)C1 (centres unmarked)	12.5
CCCN1CCC(=O)N([C@H](CSc2ccc(OC)cc2)c2ccccc2)CC1	-81.7
Cc1ccccc1CS(=O)(=O)Cc1ccc(C(=O)NC2CCCC2)o1	12.4
O=C(/C=C/c1ccco1)N1CCN(c2ncccn2)CC1	8.29
O=S(=O)(NCC1CCN(Cc2ccccc2)CC1)c1ccccc1C(F)(F)F	3.27
CCCNC(=O)Cn1c(=O)oc2cc(S(=O)(=O)N3CCCC3)ccc21	16.1
Cc1cc(C)c(C#N)c(SCc2cn3c(C)cccc3n2)n1	12.5
Cn1c(CCNC(=O)c2cccs2)nnc1SCC(=O)Nc1nc(-c2ccccc2)cs1	-1.1
CC(=O)c1ccc(C(=O)N2CCc3c([nH]c4ccccc34)C2c2cccc(C)n2)s1 (centres unmarked)	0.389
NS(=O)(=O)c1ccc(CCNC(=O)CCCCCn2c(=S)[nH]c3ccc(Br)cc3c2=O)cc1	5.08
CCCCOc1ccc(OCCSc2nc3ccccc3n2CC(=O)O)cc1	7.96
CCOc1ccc(C(=O)C[n+]2ccccc2C)cc1.[Cl-]	1.44
CCCNS(=O)(=O)c1ccc(NC(=O)c2cccnc2)cc1	2.58
